Experimental data taken from the supplement of paper PMC8728848.
This is one part of the list.

Assays:
Test in all cases: glycan array binding signal (z-score within array); higher = stronger binding
Conditions in all cases: glycan notation: IUPAC condensed, linker removed
[1] = biological target: Neu5Ac(a2-3)Gal(b1-3)[Neu5Ac(a2-3)Gal(b1-4)]GlcNAc
Summary of the method: (§1)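 Glycan array data were curated from 3228 arrays in the Consortium for Functional Glycomics database and kept only where the protein sequence was available. Glycan names were converted to IUPAC-condensed notation, and columns mapping to the same glycan were averaged. The binding signal is a within-array Z-score, averaged across arrays of the same protein sequence at different concentrations or buffers and across linkers. Negative Z-scores can be read as non-binding.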

[2] = biological target: Neu5Ac(a2-3)Gal(b1-3)[Neu5Ac(a2-6)]GalNAc
Summary of the method: as §1

[3] = biological target: Neu5Ac(a2-3)Gal(b1-3)[Neu5Ac(a2-6)]GlcNAc(b1-3)[Fuc(a1-3)[Gal(b1-4)]GlcNAc(b1-6)]Gal(b1-4)Glc
Summary of the method: as §1

[4] = biological target: Neu5Ac(a2-3)Gal(b1-3)]Neu5Ac(a2-3)Gal(b1-4)]GlcNAc
Summary of the method: as §1

[5] = biological target: Neu5Ac(a2-3)Gal(b1-4)Glc
Summary of the method: as §1

[6] = biological target: Neu5Ac(a2-3)Gal(b1-4)GlcNAc
Summary of the method: as §1

[7] = biological target: Neu5Ac(a2-3)Gal(b1-4)GlcNAc(b1-2)Man
Summary of the method: as §1

[8] = biological target: Neu5Ac(a2-3)Gal(b1-4)GlcNAc(b1-2)Man(a1-3)[GlcNAc(b1-2)Man(b1-4)GlcNAc(b1-2)Man(a1-6)]Man(b1-4)GlcNAc(b1-4)GlcNAc
Summary of the method: as §1

[9] = biological target: Neu5Ac(a2-3)Gal(b1-4)GlcNAc(b1-2)Man(a1-3)[GlcNAc(b1-4)][Neu5Ac(a2-3)Gal(b1-4)GlcNAc(b1-2)Man(a1-6)]Man(b1-4)GlcNAc(b1-4)GlcNAc
Summary of the method: as §1

[10] = biological target: Neu5Ac(a2-3)Gal(b1-4)GlcNAc(b1-2)Man(a1-3)[Neu5Ac(a2-3)Gal(b1-4)GlcNAc(b1-2)Man(a1-6)]Man(b1-4)GlcNAc(b1-4)GlcNAc
Summary of the method: as §1

[11] = biological target: Neu5Ac(a2-3)Gal(b1-4)GlcNAc(b1-2)Man(a1-3)[Neu5Ac(a2-3)Gal(b1-4)GlcNAc(b1-2)Man(a1-6)]Man(b1-4)GlcNAc(b1-4)[Fuc(a1-6)]GlcNAc
Summary of the method: as §1

[12] = biological target: Neu5Ac(a2-3)Gal(b1-4)GlcNAc(b1-2)Man(a1-3)[Neu5Ac(a2-6)Gal(b1-4)GlcNAc(b1-2)Man(a1-6)]Man(b1-4)GlcNAc(b1-4)GlcNAc
Summary of the method: as §1

[13] = biological target: Neu5Ac(a2-3)Gal(b1-4)GlcNAc(b1-2)[Neu5Ac(a2-3)Gal(b1-4)GlcNAc(b1-4)]Man(a1-3)[GlcNAc(b1-4)][Neu5Ac(a2-3)Gal(b1-4)GlcNAc(b1-2)[Neu5Ac(a2-3)Gal(b1-4)GlcNAc(b1-6)]Man(a1-6)]Man(b1-4)GlcNAc(b1-4)GlcNAc
Summary of the method: as §1

[14] = biological target: Neu5Ac(a2-3)Gal(b1-4)GlcNAc(b1-2)[Neu5Ac(a2-3)Gal(b1-4)GlcNAc(b1-4)]Man(a1-3)[GlcNAc(b1-4)][Neu5Ac(a2-3)Gal(b1-4)GlcNAc(b1-4)Man(a1-6)]Man(b1-4)GlcNAc(b1-4)GlcNAc
Summary of the method: as §1

[15] = biological target: Neu5Ac(a2-3)Gal(b1-4)GlcNAc(b1-2)[Neu5Ac(a2-3)Gal(b1-4)GlcNAc(b1-6)]Man(a1-6)[Neu5Ac(a2-3)Gal(b1-4)GlcNAc(b1-2)Man(a1-3)]Man(b1-4)GlcNAc(b1-4)GlcNAc
Summary of the method: as §1

[16] = biological target: Neu5Ac(a2-3)Gal(b1-4)GlcNAc(b1-2)[Neu5Ac(a2-3)Gal(b1-4)GlcNAc(b1-6)]Man(a1-6)[Neu5Ac(a2-3)Gal(b1-4)GlcNAc(b1-2)Man(a1-3)][GlcNAc(b1-4)]Man(b1-4)GlcNAc(b1-4)GlcNAc
Summary of the method: as §1

[17] = biological target: Neu5Ac(a2-3)Gal(b1-4)GlcNAc(b1-3)Gal
Summary of the method: as §1

[18] = biological target: Neu5Ac(a2-3)Gal(b1-4)GlcNAc(b1-3)Gal(b1-3)GlcNAc
Summary of the method: as §1

[19] = biological target: Neu5Ac(a2-3)Gal(b1-4)GlcNAc(b1-3)Gal(b1-4)GlcNAc
Summary of the method: as §1

[20] = biological target: Neu5Ac(a2-3)Gal(b1-4)GlcNAc(b1-3)Gal(b1-4)GlcNAc(b1-2)Man(a1-3)[Neu5Ac(a2-3)Gal(b1-4)GlcNAc(b1-3)Gal(b1-4)GlcNAc(b1-2)Man(a1-6)]Man(b1-4)GlcNAc(b1-4)GlcNAc
Summary of the method: as §1

[21] = biological target: Neu5Ac(a2-3)Gal(b1-4)GlcNAc(b1-3)Gal(b1-4)GlcNAc(b1-3)Gal(b1-4)GlcNAc
Summary of the method: as §1

[22] = biological target: Neu5Ac(a2-3)Gal(b1-4)GlcNAc(b1-3)Gal(b1-4)GlcNAc(b1-3)Gal(b1-4)GlcNAc(b1-2)Man(a1-3)[Neu5Ac(a2-3)Gal(b1-4)GlcNAc(b1-3)Gal(b1-4)GlcNAc(b1-3)Gal(b1-4)GlcNAc(b1-2)Man(a1-6)]GalNAc
Summary of the method: as §1

[23] = biological target: Neu5Ac(a2-3)Gal(b1-4)GlcNAc(b1-3)Gal(b1-4)GlcNAc(b1-3)GalNAc
Summary of the method: as §1

[24] = biological target: Neu5Ac(a2-3)Gal(b1-4)GlcNAc(b1-3)Gal(b1-4)GlcNAc(b1-3)[Neu5Ac(a2-3)Gal(b1-4)GlcNAc(b1-3)Gal(b1-4)GlcNAc(b1-6)]GalNAc
Summary of the method: as §1

[25] = biological target: Neu5Ac(a2-3)Gal(b1-4)GlcNAc(b1-3)Gal(b1-4)GlcNAc(b1-6)[Gal(b1-3)]GalNAc
Summary of the method: as §1

[26] = biological target: Neu5Ac(a2-3)Gal(b1-4)GlcNAc(b1-3)Gal(b1-4)[Fuc(a1-3)]GlcNAc
Summary of the method: as §1

[27] = biological target: Neu5Ac(a2-3)Gal(b1-4)GlcNAc(b1-3)GalNAc
Summary of the method: as §1

[28] = biological target: Neu5Ac(a2-3)Gal(b1-4)GlcNAc(b1-3)[Neu5Ac(a2-3)Gal(b1-4)GlcNAc(b1-6)]GalNAc
Summary of the method: as §1

[29] = biological target: Neu5Ac(a2-3)Gal(b1-4)GlcNAc(b1-6)GalNAc
Summary of the method: as §1

[30] = biological target: Neu5Ac(a2-3)Gal(b1-4)GlcNAc(b1-6)[Gal(b1-3)]GalNAc
Summary of the method: as §1

B1: HPA (Helix pomatia), Q575S3 (protein)
chain: MWAHLTGLLLICALSLSAAQRAQTGEIDCGSDSSWPKDPSDNPNRDNTREIVKHVTFSPQFCREPKVILSVTTLDAEHTKNLRYEARLKSVSPSGLSASCYSWHDGTIYRMKLSWLAVED
- glycan array binding signal (z-score) [1]: -0.265
- glycan array binding signal (z-score) [2]: -0.264
- glycan array binding signal (z-score) [3]: -0.258
- glycan array binding signal (z-score) [4]: -0.257
- glycan array binding signal (z-score) [5]: -0.256
- glycan array binding signal (z-score) [6]: -0.27
- glycan array binding signal (z-score) [7]: -0.235
- glycan array binding signal (z-score) [8]: -0.26
- glycan array binding signal (z-score) [9]: -0.262
- glycan array binding signal (z-score) [10]: -0.261
- glycan array binding signal (z-score) [11]: -0.253
- glycan array binding signal (z-score) [12]: -0.273
- glycan array binding signal (z-score) [13]: -0.259
- glycan array binding signal (z-score) [14]: -0.261
- glycan array binding signal (z-score) [15]: -0.241
- glycan array binding signal (z-score) [16]: -0.249
- glycan array binding signal (z-score) [17]: -0.26
- glycan array binding signal (z-score) [18]: -0.238
- glycan array binding signal (z-score) [19]: -0.267
- glycan array binding signal (z-score) [20]: -0.146
- glycan array binding signal (z-score) [21]: -0.265
- glycan array binding signal (z-score) [22]: -0.04
- glycan array binding signal (z-score) [23]: -0.266
- glycan array binding signal (z-score) [24]: -0.203
- glycan array binding signal (z-score) [25]: -0.243
- glycan array binding signal (z-score) [26]: -0.259
- glycan array binding signal (z-score) [27]: -0.266
- glycan array binding signal (z-score) [28]: -0.265
- glycan array binding signal (z-score) [29]: -0.252
- glycan array binding signal (z-score) [30]: -0.256
